Results from the supplement of paper PMC8748497.
The other results are listed elsewhere or left out.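 The calls were made as follows: active = fold change of at least 2 over DMSO control; inactive = below 2-fold.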 Repeats are few or missing, and single values can be far off.

tested on: HEK293 ARE/NRF2-luciferase reporter; test: ARE/NRF2 luciferase reporter activity, fold change over DMSO control; higher = stronger NRF2/ARE reporter activation; details: 10 µM; 24 h

SMILES | ARE/NRF2 luciferase reporter activity
C=C(C)[C@@H]1CC[C@]2(C)CC[C@]3(C)[C@H](CC[C@@H]4[C@@]5(C)CC[C@H](OC(C)=O)C(C)(C)[C@@H]5CC[C@]43C)[C@@H]12 | inactive: 0.971
CCOC(=O)C1=C[C@]2(CC)CCCN3CCc4c(n1c1ccccc41)[C@@H]32 | inactive: 1.11
Cc1cc2c(s1)Nc1ccccc1N=C2N1CCN(C)CC1 | inactive: 0.965
CC(=O)SCC(Cc1ccccc1)C(=O)NCC(=O)OCc1ccccc1 (stereo unspecified) | inactive: 0.911
CC1(C)S[C@@H]2[C@H](NC(=O)COc3ccccc3)C(=O)N2[C@H]1C(=O)O | inactive: 0.868
CC(C)c1c(O)c(-c2cc3c(c(C(C)C)c2O)CCC2C(C)(C)CCC[C@]32C)cc2c1CCC1C(C)(C)CCC[C@]21C (stereo partly specified) | inactive: 0.878
CC(=O)O[C@H]1CC[C@]2(C)[C@H]3CC[C@]45OC(=O)[C@@]6(CC[C@@H](C)[C@H](C)[C@H]64)CC[C@@]5(C)[C@]3(C)CC[C@H]2C1(C)C | inactive: 0.883
COc1cc(/C=C/C(=O)N2CCC=CC2=O)cc(OC)c1OC | active: 5.55
CCCCc1oc2ccc(NS(C)(=O)=O)cc2c1C(=O)c1ccc(OCCCN(CCCC)CCCC)cc1 | inactive: 0.109
CN1CCN(C(c2ccccc2)c2ccccc2)CC1 | inactive: 0.865
O=C(O)c1ccccc1Nc1cccc(OCc2ccc3ccccc3n2)c1 | inactive: 1.06
